The source gives no read counts; variants with many changes may rest on few reads.

To fix the notation:
B1: OR4K15 (parent)
chain: GUUAACGGUCAUAGGCCAUGGAAACUAGGAGCACCAUUUCGCUGCCAGUGAAGAAAUGAACAAAGAAAAUCUGGGCCAGGCAGGCAUCAAAAGAAAUAGUCUUGCGCUCAACCAGAAAGUCUGUAAUCAUUUUAAGGGUA

The data set covers variants of B1. Put plainly: self-cleavage, relative activity (ratio to wild type); higher = more cleavage; in vitro, sequencing; the parent is a self-cleaving ribozyme.
For the variant A5G A11G A36C A118G, the self-cleavage was 0.47. Take A5C C25U A56G U127C: the self-cleavage is 0.93.

Regarding U3C U19C U38C A86G, the self-cleavage was determined as 0.86.

U3C A55G A94G U100C U120C: the self-cleavage was 1.62. Turning to A4G A11G A52G A90G, the self-cleavage stood at 0.49. With A4G U19C U87C A94U A117G, the self-cleavage stood at 1.14. On to U3G U37C U38C, for which the self-cleavage was 0.69. For A5C A55G U57C A95G A116G the value was 0.79.

In the case of A5G A69U U70A, the self-cleavage was 0.99.

Take A4G A13G U49C: the self-cleavage was found to be 0.75.

For A5G A23U A95G A111G, the self-cleavage came to 0.06. Consider A4G A60G C85U, for which the self-cleavage came out at 0.72. With A4G A23G A68G C77U, the self-cleavage turned out to be 0.79. Take A4G U39C U57A A62G A68G A118U U132A A140G: the self-cleavage is 0.72. On to A5G A54G A66G C113U, for which the self-cleavage stood at 0.08. Regarding A4G A63G A92G, the self-cleavage came out at 0.94. The result for A4G A94G U103C U133C A134G reads 1.42; that for A5C A52U A67G A117G, 1.41. On to A5C A33G A51G A59G A92U, for which the self-cleavage came out at 1.28. Turning to U3C U43A A86G, the self-cleavage amounted to 1.38. For A5G A22G A54G A89U U102A the value was 0.83.

On to A5G A23G U49C A82U A95G U124C U139A, for which the self-cleavage worked out at 0.3. In the case of A4G U49C A52U A59G A134G, the self-cleavage is 0.89. In the case of A5G A36C A86G, the self-cleavage is 0.88.

Consider U3C U37C A47G, for which the self-cleavage is 0.98. Consider A5G A22G U87C, for which the self-cleavage was determined as 0.5. On to A5G C40U C61U A96G U127C U130C, for which the self-cleavage was 0.72. As for U3C A22G U127C A129U, the self-cleavage was found to be 0.72. Consider A4G A54C U102C, for which the self-cleavage was 1.89. Turning to A5C U9C A11G A56G U130C, the self-cleavage worked out at 0.74.

Turning to A5G A52G A54G, the self-cleavage is 1.23. Take A4G G15A C105U U120A U127C U132A U139C: the self-cleavage was determined as 0.06. Consider U3C U26C A78U A92G U103A, for which the self-cleavage was determined as 0.09. The result for A4G A23G A30G U49A U87C U120C reads 1.05. As to A4G C25U A62G A91U, the self-cleavage was determined as 1.65. In the case of U3C U57C A63G A68G A95G A114G G136A, the self-cleavage was determined as 0.23. For A5G A27G A36C the value was 0.52; for A4G A36G A94G U120C, 0.89. In the case of A5G A63C A129C A135G, the self-cleavage was determined as 1.39. A5G A68G U72C: the self-cleavage was found to be 0.55.

Regarding A5C U12C U39A A56G U131C U132C, the self-cleavage was determined as 1.4.

A5G A54G U72A: the self-cleavage came out at 0.39. For A4G A51U A90G C109U A117U the value was 0.29; for A4G A23G U38C A51G A68G U132C, 0.5. For the variant A4G G31C A51U A59G, the self-cleavage was 1.67. A5G A36U U39C A66G U100C A111G A125G U127C: the self-cleavage turned out to be 0.01. For A5G A63G A117G the value was 1.58. On to A5G A55G A95G, for which the self-cleavage came out at 1. A5G A23G A66G U100C: the self-cleavage turned out to be 1.58. Turning to A4G G14A U37A U39A A68G A95G U122C, the self-cleavage was determined as 1.66. For the variant A4G A55G A64G A66U A90U, the self-cleavage came out at 0.86. The result for U3C U39A A52G A55G A95G reads 0.3; that for U3C A56G U57C U87C, 0.73; that for A5G A51G A64G A67G, 0.41. On to U3C A59G A69G A140G, for which the self-cleavage is 0.49. For A5G A47U A94G A114G, the self-cleavage came to 0.14. Turning to A4G U57C A64U U72C, the self-cleavage amounted to 0.53.

As to U3C A24G U49C A56G U72A A135G, the self-cleavage was 0.16. Regarding A5G A23G A55G A90G U122A, the self-cleavage is 1.29. Consider A5G A24C A63G, for which the self-cleavage stood at 0.91. For A5G G7A A47G A51G A54G, the self-cleavage stood at 1.16. In the case of A5G A60G A94G, the self-cleavage is 1.22. Turning to A4G A24G U38C A62G U70C A91U A98G A118G, the self-cleavage is 0.17.

On to A5G A18G U38C C46A U122C, for which the self-cleavage amounted to 0.5. Take A5G A63G A135U: the self-cleavage came out at 0.29. Turning to U3C U108C U122C, the self-cleavage stood at 0.

Regarding A5G A60G A78U A135G, the self-cleavage amounted to 0.18. U3C U37C U49G U124A A135G: the self-cleavage came to 0.67. With A5G A22G A116G, the self-cleavage was 1.04. As to A5G A117U U132C, the self-cleavage was 0.31. As to A5G C46U A67U A82U A91U A118G, the self-cleavage stood at 0.08. Consider A5G A59U A78G A114G A126G A129G U139C, for which the self-cleavage is 0.02. Regarding A5G A33G U43A A59G A89G U108C A126G, the self-cleavage stood at 0. The result for U3C A24G A55G A64G U108C C109A A125G U127C reads 0; that for A4G A22G U103C, 1.01. For A5G A30U U132C, the self-cleavage came out at 0. In the case of A4G U38C C71A A118G U132A, the self-cleavage came out at 0.03. The result for U3G U19A A60G A111G U124A reads 0.01; that for A5G A18G A33U A96G U102C, 0.37; that for A5G C105U A116G, 0.08.

As to A4G A54G A56G A66G A78G G106A U127C A134U, the self-cleavage stood at 0.02.

U3C A110U U132A: the self-cleavage was determined as 1.13. Turning to A5G A13G U19C A30G U38C U49C, the self-cleavage stood at 0.49. A5G A54G U108C U120C: the self-cleavage turned out to be 0.04. The result for A4G A96G U100C reads 0.68; that for A5G C6U A89G A111G, 0.05. In the case of A4G U9A A24G U131C A140G, the self-cleavage was found to be 0.96. The result for A4G A68G A96G U130G reads 0.44; that for A4G A90G C109U G137A, 0.34. Take A4G U43C U130C A140G: the self-cleavage stood at 0.9.

Regarding A4G A59G A60G A64U A117G, the self-cleavage worked out at 1.18.

Turning to A5G A22G A94U A117G, the self-cleavage is 1.41. Regarding A5C A11G U12A A36G C61G U72C, the self-cleavage worked out at 0.23. For U3C C40U A60G, the self-cleavage amounted to 1. As to A5G A69U C77U A118G U122A U131C, the self-cleavage worked out at 0.79.

In the case of A5G C10A U39A A63G, the self-cleavage turned out to be 0.86.

In the case of A5C C17A A78G, the self-cleavage is 0.6. In the case of A4G A13U A117G, the self-cleavage worked out at 0.37. As to A4G A95G A129U, the self-cleavage was determined as 0.65. In the case of A5G A51G A90G U122C, the self-cleavage worked out at 1.52.

Consider A5G A18U U37C, for which the self-cleavage stood at 0.71.

For A5C A13U G119A, the self-cleavage amounted to 1.06. For the variant A5G A126G A135C, the self-cleavage amounted to 0.67. For U3C A63U G106U U131C, the self-cleavage is 0.02.

For the variant A4G A30G A67G C81U A111U, the self-cleavage is 0.04. Consider A5G A89U A94G U132C, for which the self-cleavage came out at 1.7. For the variant A5G A52G A60G A69U A96G, the self-cleavage came out at 0.93. As to U3C A36G A56G A60G A89G, the self-cleavage came out at 1. Turning to A5G A86G A110U, the self-cleavage was 0.86. With A5G C16U A78G A111G, the self-cleavage turned out to be 0.06. U3C A30G U103C U130A: the self-cleavage amounted to 0.68.

Turning to A5G A23G U57G, the self-cleavage is 0.97. In the case of A5C A51G A52G A78G U131C, the self-cleavage amounted to 0.38. For A5G C16U A91G U130C the value was 0.53.

As for A5G A94G U132C A134G, the self-cleavage worked out at 1.12. Turning to A4G U39A U130C, the self-cleavage was found to be 1.72. Take A5G A22G U57C U102C: the self-cleavage is 0.72. For A5G A95G A111U the value was 0.34; for U3C U43A A55G, 1; for A5G A56G A125G, 0.79. For A5G A110G U130C the value was 0.12; for A5G A33G A110G, 0.15; for A5G A22G A30G, 1.49. The result for A5G A96G U103C U130C A135U reads 0.61. Consider A5G A18G A24G, for which the self-cleavage worked out at 1.27. For the variant U3C A36G U38C U70A C85U A91G, the self-cleavage was determined as 0.73. For A4G A47G A69G U87C A116U A140G, the self-cleavage turned out to be 0.44. With U3C U43C A94G, the self-cleavage amounted to 0.4. For A5G A68U A96G the value was 1.12; for A5G A23G A118G, 0.81; for A4G A30G A69U A92G, 0.43.

As to A5G A33U U102C, the self-cleavage worked out at 1.64.

As to U3C A78U A118G U122A, the self-cleavage worked out at 0.23.

On to U3C A51C C101U, for which the self-cleavage came out at 0.14. In the case of U3C A27G A82G C121U U127A, the self-cleavage was determined as 1.34. As for A5G A24G A60G, the self-cleavage was determined as 0.29.

With A4G G74C A94U, the self-cleavage was 0.32. The result for A4G U87C A92G U127C reads 1.05; that for A5G A86G C121A A140G, 2.24. For A4G A11G A24G A68G A117G U132A the value was 1.52; for A5G A89U U103C U122A, 0.6. For A5C U12C U37C A126U U127C U130C, the self-cleavage was determined as 0.42. On to A5G A69C U130C, for which the self-cleavage amounted to 0.5. The result for A4G A33U A63G reads 1.85; that for A5G A18G G21A, 0.79; that for A5G G7U A63G A67G, 1.19.

On to U3G A11G A78G, for which the self-cleavage amounted to 0.31. Regarding U3C G14A A91G U122A U131C, the self-cleavage worked out at 0.01. As for U3C U100C U122C U130C, the self-cleavage worked out at 1.57.

Consider A5G A11U A23G U37C U70C U122C U127C, for which the self-cleavage was found to be 0.15. Consider A5G A18G A56G G73U, for which the self-cleavage stood at 0.33. Regarding A5G A22G A23G, the self-cleavage was determined as 1.36.

For the variant A4G A78U A86G A96G, the self-cleavage was determined as 0.11. On to A4U U87A A116G, for which the self-cleavage is 1.42. For A5G A89G A92G A135G, the self-cleavage worked out at 1.22. With A4C A11U U12C A23G U124C, the self-cleavage amounted to 0.61. For A4G U9C A11U A22G A111G U131G, the self-cleavage turned out to be 0.05. As to A5G A23G U39C A91G A125G, the self-cleavage was 0.23. For A5G A11U C16U A110G A111U U132C the value was 0.01. Regarding A5G A78G A140C, the self-cleavage was found to be 0.07.

As to A5G A13U A24G U100C, the self-cleavage came to 1.7. In the case of A5G A47G U102C, the self-cleavage is 1.36. Regarding A5G A54G A90G, the self-cleavage is 2.23. For A5G A55G A60G U103C U130C the value was 0.45; for U3C A22U A89G A98G U120C U124C, 0.06; for A5G A67G A110G, 0.13. Turning to A4G U19C A54U U102C, the self-cleavage was 1.5.
